In PubChem BioAssay AID652104 (National Center for Advancing Translational Sciences (NCATS), 2013):
Screen size: about 410,000 compounds; about 7,200 (1.8%) were called active. Inconclusive results, whose numbers are uncertain, are shown with a selection of clear calls. The call rests on the fitted dose curve; in most records, active means well fitted activation curve with a large enough effect; inconclusive means small, poorly fitted or top-dose-only effect, or another doubt; inactive means no such curve, though single readings can be large or run the other way. Potencies of inconclusive entries are left out as doubtful fits.

assay: qHTS of TDP-43 Inhibitors; details: TDP-43 expressing yeast growth rescue, BacTiter-Glo, 24 h; series mostly up to 46.1 µM; further: nearly all actives have a fitted effect of over 50% in size
In short: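 Readout is BacTiter-Glo luminescence of cell growth, so inhibitors register as activators. TDP-43-expressing yeast at OD600=0.02 in galactose medium, after raffinose pregrowth to mid-log, were incubated with compound for 24 hr at 30 deg C.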
Potency means the concentration at half of the fitted maximal effect; tags describe the fitted curve by direction and shape.

SMILES | Potency
CS(=O)(=O)N1CCN=C1SCc1ccc(Br)cc1 | inconclusive [activator, partial curve]
CC(=O)Nc1c(C(=O)c2ccccc2)oc2ccccc12 | active: 7.94 µM
CCC(C)(C)C1CCC2(CC1)NC(=S)N(c1ccccc1)N2 (stereo not drawn) | inconclusive [activator, full curve, poor fit]
Cc1ccc(C(=O)NCCNc2ccc(Cl)cc2[N+](=O)[O-])o1 | inconclusive [activator, single point]
O=C(NC1CCCCCCC1)C1CCN(c2nc3ccccc3o2)CC1 | inconclusive [activator, single point]
O=S(=O)(c1ccccc1Br)N(Cc1ccccc1)CC(O)COCc1ccccc1 (stereo not drawn) | inconclusive [activator, single point]
CCCC[C@@H]1C=C(C(=O)O)[C@H](c2ccc(CC)cc2)N1S(=O)(=O)c1ccc(C)cc1 | inconclusive [activator, single point]
CCOC(=O)c1cnn(-c2ccccc2)c1-n1cccc1C(=O)C(=O)Nc1ccccc1 | inconclusive [activator, partial curve]
N#CC(c1ccccc1)N(CCCCl)C(=O)c1ccc(Br)cc1 (stereo not drawn) | inconclusive [activator, partial curve]
Cc1cccc(-c2cnn(-c3ccccc3)c2N)c1 | inconclusive [activator, partial curve]
COc1cccc(C(=O)Nc2ccc3oc(-c4ccc5ccccc5c4)nc3c2)c1 | inconclusive [activator, full curve, poor fit]
COc1cc(OC)cc(-c2nc3nc(C)c(CCC(=O)Nc4ccc(Cl)cc4)c(C)n3n2)c1 | inactive
O=C(CSc1cccc[n+]1[O-])CSc1cccc[n+]1[O-] | active: 3.55 µM
CC(C)C[C@H]1CNC(=S)N1C[C@H]1CCCN1C[C@H](Cc1ccccc1)N1C[C@H](CC(C)C)N(CCc2ccccc2)C1=S | inconclusive [activator, partial curve]
Cc1ccc(S(=O)(=O)N(C)CCCC(=O)Nc2cccc3ccccc23)cc1 | inconclusive [activator, single point]
Cc1ccc(C(=O)Nc2nc(-c3ccccn3)cs2)s1 | inconclusive [activator, single point]
Fc1ccc2[nH]c3c(Cl)ncnc3c2c1 | inconclusive [activator, partial curve]
Cc1ccccc1OCCOC(=O)c1c(-c2ccccc2)noc1C | inactive
